# Measured values as given in PubChem BioAssay AID1508623 (National Center for Advancing Translational Sciences (NCATS), 2021).
# In all, about 48,000 compounds went through this assay and about 450 (0.94%) were called active. This list was built around the results that the source calls inconclusive (neither active nor inactive); the mix of calls is not that of the screen. The call rests on the fitted dose curve; in most records, active means well fitted inhibition curve with a large enough effect; inconclusive means small, poorly fitted or top-dose-only effect; inactive means no such curve, though single readings can be large or run the other way. A potency beside an inconclusive call is a rough fit, not a confirmed value.
# Assay: Primary qHTS for Identification of Small Molecule Inhibitors of Huntingtin Promoter Activity; further: nearly all actives have a fitted effect of over 50% in size
# Settings: HEK293 HTT promoter firefly luciferase reporter (activity 0% = vehicle and -100% = no light), 24 h; activity change, negative = inhibition: at 57.5 µM (top of the series)
# Procedure, shortened: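 Firefly luciferase signal from promoter-reporter HEK293 cells was scaled between vehicle (0%) and zero RLU (-100%). Compounds were tested at final concentrations of up to 57.5 uM over 24 h at 37 degrees C. PTC124 at 50 uM final served as control inhibitor.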
# Potency means the concentration at half of the fitted maximal effect; tags describe the fitted curve by direction and shape.
SMILES,"activity change, negative = inhibition",Potency
Cc1ccc(CNC(=O)c2cc3c(s2)-c2ccccc2SC3)cc1,inactive: -4.14%,
CCOC(=O)c1cc(-c2ccccc2)n(CC(=O)NC(C)c2ccccc2)c1C (centres undefined),inactive: -7.03%,
COc1ccc(Cl)cc1NC(=O)CCS(=O)(=O)c1nc(-c2cccs2)cc(C(F)(F)F)n1,,"inconclusive: 25.1 µM [inhibitor, single point]"
CCc1ccc(OC(C)C(=O)N2CCC(c3nc4ccccc4s3)CC2)cc1 (centres undefined),,"inconclusive: 31.6 µM [inhibitor, partial curve, poor fit]"
CC(C)COc1ccc(C(=O)Nc2cccc(-c3nc4ccccc4[nH]3)c2)cc1,,"inconclusive: 39.8 µM [inhibitor, single point]"
COc1ccccc1-c1cc2nc(C)c(CCC(=O)Nc3ccc(Br)c(C)c3)c(C)n2n1,,"inconclusive: 20 µM [inhibitor, partial curve, poor fit]"
CCn1cc(C(=O)N2CCN(c3cccc(C(F)(F)F)c3)CC2)c2cc(OC)c(OC)cc2c1=O,inactive: -15.5%,
CCOc1ccc(-c2nonc2NC(=O)c2oc3ccc(Br)cc3c2C)cc1,,"inconclusive: 39.8 µM [inhibitor, single point]"
O=C(c1ccc(F)cc1)N1c2nc(-c3ccco3)nn2C2(CCCCC2)[C@@H]2CCCC[C@@H]21,inactive: -28%,
CCOc1ccc(OCC)c(NS(=O)(=O)c2cc(Br)cc3c2N(C(C)=O)C(C)C3)c1 (centres undefined),,"inconclusive: 31.6 µM [inhibitor, single point]"
Clc1cccc(CNc2cc(-c3ccccc3)nc3nncn23)c1,,"inconclusive: 31.6 µM [inhibitor, single point]"
CNC(=O)c1nn(C)c2c1C(C)(C)Cc1cnc(Nc3ccc(N4CCN(C)CC4)cc3)nc1-2,,"inconclusive: 1.93 µM [inhibitor, full curve]"
Cc1cccc(N2C(=O)CS(=O)(=O)C23C(=O)N(Cc2c(F)cccc2Cl)c2ccccc23)c1 (centres undefined),,"inconclusive: 17.8 µM [inhibitor, partial curve, poor fit]"
O=C(O)CCCNc1cc(N2CCN(C3CCCCC3)CC2)c2noc3c2c1C(=O)c1ccccc1-3,,"inconclusive: 31.6 µM [inhibitor, single point]"
Cc1ccc(CN(C(=O)c2ccccc2F)c2ccccn2)o1,inactive: -0.749%,
CC(=O)Nc1ccc(S(=O)(=O)N2CCC(c3nnnn3-c3ccccc3)CC2)cc1,,"inconclusive: 28.2 µM [inhibitor, partial curve, poor fit]"
Cc1ccc(/C=N/NC(=O)c2ccccc2Oc2ccccc2)o1,inactive: -16.7%,
CCOc1ccc(C(=O)Nc2cccc(C(=O)OCc3cc(=O)n4nc(C5CC5)sc4n3)c2)cc1,,"inconclusive: 6.31 µM [inhibitor, full curve, poor fit]"
O=C(COc1ccc(Cl)cc1)Nc1ccc(C(=O)OCc2cc(=O)n3ccsc3n2)cc1,,"inconclusive: 39.8 µM [inhibitor, single point]"
FC(F)(F)Oc1ccc2c(c1)NC(c1ccncc1)=NC(c1cccs1)=N2,,"inconclusive: 39.8 µM [inhibitor, single point]"

SMILES,"activity change, negative = inhibition",Potency
Cc1ccc(NC(=O)CCSc2nc(-c3ccco3)cc(C(F)(F)F)n2)cc1F,,"inconclusive: 31.6 µM [inhibitor, partial curve, poor fit]"
CCOC(=O)N1CCN(Cc2nc3cc(NC(=O)c4ccc(OC)cc4)ccc3n2C(C)C)CC1,,"inconclusive: 17.8 µM [inhibitor, partial curve, poor fit]"
Oc1ccc(NCc2ccccc2OCc2ccccc2F)cc1,inactive: -18.1%,
CC(=O)c1ccc(NC(=O)CCCSc2nc(-c3ccco3)cc(C(F)(F)F)n2)cc1,,"inconclusive: 39.8 µM [inhibitor, single point]"
CCOC(=O)c1cccc(Nc2cc(-c3ccccc3)ncn2)c1,,"inconclusive: 25.1 µM [inhibitor, single point]"
Cc1c(Cl)cccc1NC(=O)c1ccc2snnc2c1,inactive: -0.595%,
COc1ccc(NC(=O)CCCN2C(=O)CCn3nc(-c4cn(C)c5ccccc45)cc32)cc1OC,inactive: 0%,
CCC(=O)N1c2ccc(S(=O)(=O)NCc3ccc(F)cc3)cc2CC1C (centres undefined),,"inconclusive: 25.1 µM [inhibitor, single point]"
CCOC1OC(=O)C[C@H]1NC(=O)[C@@H]1CCCN1C(=O)[C@@H](NC(=O)c1ccc(N)c(Cl)c1)C(C)(C)C (some centres undefined),inactive: 14.5%,
Cc1cc2oc(C(=O)Nc3ccc(S(=O)(=O)Nc4ncccn4)cc3)cc(=O)c2cc1C,inactive: -9.08%,
CC(=O)c1ccc(Nc2cc(C)nc3nc(Cc4ccc(Cl)cc4)nn23)cc1,,"inconclusive: 20 µM [inhibitor, single point]"
O=C(Nc1cc2c(cc1C(=O)c1ccccc1Cl)OCCO2)c1ccccc1,,"inconclusive: 3.16 µM [inhibitor, partial curve, poor fit]"
O=C1c2[nH]nc(-c3ccccc3)c2C(c2ccccc2)N1c1cccc(C(F)(F)F)c1 (centres undefined),,"inconclusive: 35.5 µM [inhibitor, partial curve, poor fit]"
Cc1c(Cl)cccc1Nc1nc(N)nc(CSc2nc3ccccc3s2)n1,,"inconclusive: 39.8 µM [inhibitor, partial curve, poor fit]"
O=C1CS(=O)(=O)C2(C(=O)N(Cc3ccc(F)cc3)c3ccccc32)N1c1cccc(C(F)(F)F)c1 (centres undefined),,"inconclusive: 25.1 µM [inhibitor, single point]"
CC1CCN(S(=O)(=O)c2ccc3c(c2)N(CC(=O)NCCc2ccc(Cl)cc2)C(=O)CO3)CC1,,"inconclusive: 22.4 µM [inhibitor, single point]"
Cc1ccc(NC(=O)CCCn2c3ccccc3c(=O)c3cc(C)ccc32)c(Br)c1,,"inconclusive: 14.1 µM [inhibitor, partial curve, poor fit]"
CCOC(=O)c1c(C)[nH]c(C)c1S(=O)(=O)N1CCC(C(=O)N2CCN(c3cc(C)ccc3C)CC2)CC1,,"inconclusive: 28.2 µM [inhibitor, partial curve, poor fit]"
CCCC(=O)Nc1nnc(SCc2cc(=O)c3ccc(C)cc3[nH]2)s1,,"inconclusive: 10 µM [inhibitor, partial curve, poor fit]"
